Test results: the supplement of paper PMC11417369
± gives the standard deviation of the averaged measurements. This is one part of the list.

Each sequence was assayed on PfAP2-LT AP2 domain (GST-tagged) (assay: gcPBM binding intensity (ln(normalized median fluorescence intensity)); higher = stronger DNA binding).
In short: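 GST-tagged P. falciparum DNA-binding domains, expressed in E. coli (about 25 μg on average), were applied for 1 h to an Agilent 4 × 180k array of primer-extended double-stranded 36-bp intergenic genomic probes plus negative controls. The binding buffer was 1× PBS with 1% milk, 0.2 mg/ml BSA, 0.5% salmon testes DNA and 0.03% Triton X-100. Bound protein was detected with Alexa488 anti-GST antibody and scanned at 488 nm. Binding intensity is the highest Masliner-normalised natural-log median intensity across replicate spots of either probe orientation.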
With “TACCTAATTCGGTCCCGTACAAGTTAGTTTCAATTC [XGTACX_site2703]” the “gcPBM binding intensity (ln)” value was 8.7 ± 0.42. In the case of “TATAGATACATATACACACACACACCCACATATATA [CACACA_site3436]”, the “gcPBM binding intensity (ln)” value is reported as 9.94 ± 0.11. “ATGTATGTGTAACATAGTACTTTTTAAAAGGATATT [XGTACX_site5328]” was tested, and the “gcPBM binding intensity (ln)” value was 8.92 ± 0.48. For “TATTTTTTATAATAATGTACATATATATATATAATA [XGTACX_site2329]”, the “gcPBM binding intensity (ln)” value was 8.47 ± 0.42. With “AATATCATATAAAAATGTACAAATTCTAAAACACGA [XGTACX_site1442]” the “gcPBM binding intensity (ln)” value was 8.95 ± 0.46. For “GTATTCATGCTAAAGGTGCAATAATTTTTATAATAA [GTGCAC_site9603]”, the “gcPBM binding intensity (ln)” value was 8.54 ± 0.49. For “AAGATAAAATTATGTAGTACAAAAAAAAATAAAAAA [XGTACX_site139]”, the “gcPBM binding intensity (ln)” value was 8.71 ± 0.57. In the case of “ATCAAACCTTTTAAATGTACATTCGGAGTAAAAAAA [XGTACX_site282]”, the “gcPBM binding intensity (ln)” value is reported as 8.65 ± 0.39. “TGATTTCCAGGTTATTGTACAAAATTAATTTTCGAA [XGTACX_site2491]” was tested, and the “gcPBM binding intensity (ln)” value was 8.39 ± 0.47. With “AAAAGTTTTATTTAAATGAATTAATCTTTACTATAT [CACACA_negctrl_site282]” the “gcPBM binding intensity (ln)” value was 8.32 ± 0.53. In the case of “CAATTTATAAAGAAAACACACATATACATATATACA [CACACA_site1260]”, the “gcPBM binding intensity (ln)” value is reported as 8.93 ± 0.49. For “TATTAAACAAATTATGCAAAAATAAATCAATATGTT [CACACA_negctrl_site171]”, the “gcPBM binding intensity (ln)” value was 8.7 ± 0.41. With “ATTATTTTATAATTCACACATAAATAAAAAAAAAAT [CACACA_site5290]” the “gcPBM binding intensity (ln)” value was 8.52 ± 0.38. In the case of “TTAGGAAGCTCACAAAATAAAGTGAAAAGAAGAAAA [XGTACX_negctrl_site572]”, the “gcPBM binding intensity (ln)” value is reported as 8.63 ± 0.63. For “TAAATATTATTTCATAGTACTTTTATTATTGATATA [XGTACX_site5566]”, the “gcPBM binding intensity (ln)” value was 8.53 ± 0.42. “TTTTGTAGTTTATAAATAAAAGAGAATATGGTGCTT [CACACA_negctrl_site413]” was tested, and the “gcPBM binding intensity (ln)” value was 8.55 ± 0.47. In the case of “TAAATAAATATATATACACACATATATATATATATA [CACACA_site598]”, the “gcPBM binding intensity (ln)” value is reported as 9.43 ± 0.071. With “ATATATATAAAACACACACACAAAAAAAATAAAGAC [CACACA_site117]” the “gcPBM binding intensity (ln)” value was 10.1 ± 0.28. For “TAATGTATATGTAAATGTACATGTATATTATTTAAA [XGTACX_site1840]”, the “gcPBM binding intensity (ln)” value was 8.64 ± 0.4. In the case of “ATCAAAGATAAATTTACACACATATATATATATATA [CACACA_site2969]”, the “gcPBM binding intensity (ln)” value is reported as 9.72 ± 0.085. “AAGATATTTGTATAATGTACAAAACTATATAAAACT [XGTACX_site1433]” was tested, and the “gcPBM binding intensity (ln)” value was 8.81 ± 0.46. In the case of “TCTTCCCAAATAAAGTGTACATAAATACGAATAATA [XGTACX_site4363]”, the “gcPBM binding intensity (ln)” value is reported as 8.65 ± 0.49. With “AAAATTAAAATATATACACACATATATATATTAAAT [CACACA_site4419]” the “gcPBM binding intensity (ln)” value was 8.85 ± 0.42. With “AAATATACAAAATATACACACATATTTATTTATGAT [CACACA_site2051]” the “gcPBM binding intensity (ln)” value was 8.91 ± 0.39. For “TATTTTCATTTGCGCGCACACAATAATAATTTTTGG [CACACA_site3525]”, the “gcPBM binding intensity (ln)” value was 9.32 ± 0.34. “AACAATTATTTATCTACACACTTTTATGTTATTTAC [CACACA_site9]” was tested, and the “gcPBM binding intensity (ln)” value was 9.12 ± 0.43. In the case of “TAAAAAATATAAATGACACACACTTAAAAACAAAGA [CACACA_site671]”, the “gcPBM binding intensity (ln)” value is reported as 9.23 ± 0.38. For “TATAAATTAATGACATGTACATAAAAGTATAGATGT [XGTACX_site6534]”, the “gcPBM binding intensity (ln)” value was 9.21 ± 0.43. With “AATACAATATAGTGAAAAATAATTAAATACAATAAG [XGTACX_negctrl_site161]” the “gcPBM binding intensity (ln)” value was 8.88 ± 0.61. “CGTAAACAATTATGATGTACATAAAATATATATATA [XGTACX_site2705]” was tested, and the “gcPBM binding intensity (ln)” value was 8.96 ± 0.47. In the case of “GTATTAGATAAATACACACACAAGCATATATTTTTA [CACACA_site3431]”, the “gcPBM binding intensity (ln)” value is reported as 9.28 ± 0.4. In the case of “TCTATTCATTTTGAAGGTACACATTTCTTTATAATA [XGTACX_site6218]”, the “gcPBM binding intensity (ln)” value is reported as 8.52 ± 0.48. In the case of “AAAAATATATATATATATATATATATAAGGAATATA [XGTACX_negctrl_site450]”, the “gcPBM binding intensity (ln)” value is reported as 9.37 ± 0.32. In the case of “AATATATCATTATATAAACACACAATATGTTTTTTA [CACACA_site9260]”, the “gcPBM binding intensity (ln)” value is reported as 8.66 ± 0.44. With “AATAAATATATAAATACACACAAACATACATATATA [CACACA_site9340]” the “gcPBM binding intensity (ln)” value was 9.29 ± 0.34. “TTAAATTTTTTTTTGTGTACGAAAAACAGAAAAAAT [XGTACX_site8625]” was tested, and the “gcPBM binding intensity (ln)” value was 8.26 ± 0.53. “TATGTGTATGGGAATGCATGTAAATATGTACATATA [TGCATGCA_site737]” was tested, and the “gcPBM binding intensity (ln)” value was 8.93 ± 0.45. With “ATATATATATACATATGTACATATAAAATAATTTTG [XGTACX_site3731]” the “gcPBM binding intensity (ln)” value was 8.87 ± 0.33. “TTGTTCCACAAAAATTTAGTCAAAAAAAAATAAAAA [TGCATGCA_negctrl_site546]” was tested, and the “gcPBM binding intensity (ln)” value was 8.27 ± 0.43. With “ACAAAAAAAAAAATAACACACATGGGGGTGTATAAA [CACACA_site3797]” the “gcPBM binding intensity (ln)” value was 9.2 ± 0.12. For “AATGAATAACAATACTATATGATTTTTAATACATTA [XGTACX_negctrl_site42]”, the “gcPBM binding intensity (ln)” value was 8.45 ± 0.49. “ATTAATTAAGGCACATGTACAAAATATTTTTTATAA [XGTACX_site1964]” was tested, and the “gcPBM binding intensity (ln)” value was 8.79 ± 0.35. For “TATACAATCTATATAACACACATATTTATATAAAAT [CACACA_site1797]”, the “gcPBM binding intensity (ln)” value was 8.79 ± 0.38. In the case of “AATATAGTTCAATATACACACCCCTTTATTCATTTT [CACACA_site3625]”, the “gcPBM binding intensity (ln)” value is reported as 9.15 ± 0.26. In the case of “CAATATAAAAAACACACACACAAACATATATTTATA [CACACA_site3703]”, the “gcPBM binding intensity (ln)” value is reported as 9.84 ± 0.29. In the case of “TATTTATATAAAAATACACACATGAATGGATATATA [CACACA_site6335]”, the “gcPBM binding intensity (ln)” value is reported as 8.79 ± 0.4. With “TGTCGGCTTAGATTAGTGCACTGAAAAATGAAGTAT [GTGCAC_site9919]” the “gcPBM binding intensity (ln)” value was 8.72 ± 0.49. “ACAAAACGAACATACGCATGTGTGTACATTAATATA [TGCATGCA_site922]” was tested, and the “gcPBM binding intensity (ln)” value was 9.51 ± 0.34. For “CACCAATTCCTATGCACACACATCTGCATATTATAT [CACACA_site5049]”, the “gcPBM binding intensity (ln)” value was 9.62 ± 0.38. With “TTATTTACATCAAGTACATGCAGTAAAAAAAAAAAA [TGCATGCA_site351]” the “gcPBM binding intensity (ln)” value was 8.62 ± 0.43. For “ATATAATATATGTATACACACATATTATATAATATT [CACACA_site3699]”, the “gcPBM binding intensity (ln)” value was 8.97 ± 0.33. “ATGAACAGTTCATGTTGTACAATCTCCATTTTTTAC [XGTACX_site3933]” was tested, and the “gcPBM binding intensity (ln)” value was 8.85 ± 0.41. In the case of “TATACACATTTTTATACACACTTGTTTTATAAAACG [CACACA_site6480]”, the “gcPBM binding intensity (ln)” value is reported as 8.88 ± 0.4. For “ATAATATGAAATATAACACACATATATAAAAACATT [CACACA_site866]”, the “gcPBM binding intensity (ln)” value was 9.11 ± 0.33. With “TATTTTTTTTTTGGGTGTACCTTTTATATATATTGT [XGTACX_site5036]” the “gcPBM binding intensity (ln)” value was 8.84 ± 0.52. With “TTTTTTTTTTTTTTTTGTACTTAAAAATTTATATAA [XGTACX_site7718]” the “gcPBM binding intensity (ln)” value was 8.2 ± 0.45.
